Here are results for 115 sequences from the BET-seq Pho4 binding data (Le et al. 2018).

The list shows a part of the results. The energies were worked out here from pooled read counts, against the library average; single values are noisy.

For this assay, the target named is T1, Pho4 (S. cerevisiae) (UniProt P07270).
T1 sequence: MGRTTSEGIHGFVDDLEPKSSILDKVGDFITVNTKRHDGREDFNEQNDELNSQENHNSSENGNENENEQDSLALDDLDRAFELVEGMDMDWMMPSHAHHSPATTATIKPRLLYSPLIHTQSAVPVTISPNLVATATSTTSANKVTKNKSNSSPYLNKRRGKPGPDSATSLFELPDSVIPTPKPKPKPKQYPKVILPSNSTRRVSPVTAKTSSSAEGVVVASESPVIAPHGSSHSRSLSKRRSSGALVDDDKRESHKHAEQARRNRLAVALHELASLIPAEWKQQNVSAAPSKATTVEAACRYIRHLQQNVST
The experiment in a line: relative binding free energy (BET-seq); higher = weaker binding. To be noted: reference: library average.
As for TGGTTCACGTGGGTGC, the “relative binding free energy” value came out at 0.15 kcal/mol.

As for GGTCGCACGTGTGCTG, the “relative binding free energy” value is -0.03 kcal/mol.

Turning to AGGTGCACGTGACGGG, the “relative binding free energy” value is 0.16 kcal/mol.

As for ATGAGCACGTGATGTC, the “relative binding free energy” value was found to be 0.06 kcal/mol.

In the case of ATATACACGTGGTGTT, the “relative binding free energy” value is -0.03 kcal/mol.

For the sequence CTTAACACGTGTGGGT, the “relative binding free energy” value is -0.1 kcal/mol.

As for TTGCGCACGTGTGGGG, the “relative binding free energy” value was -0.05 kcal/mol.

Take CGGGGCACGTGGAGTG: the “relative binding free energy” value is -0.08 kcal/mol.

Take AGTGACACGTGAGTGG: the “relative binding free energy” value is 0.07 kcal/mol.

For the sequence GCTGGCACGTGTAGCG, the “relative binding free energy” value is -0.03 kcal/mol.

Take AAGTACACGTGAATGG: the “relative binding free energy” value amounted to 0.34 kcal/mol.

For the sequence CGGGGCACGTGTTTTC, the “relative binding free energy” value was -0.04 kcal/mol.

Regarding GCAGTCACGTGGGGTG, the “relative binding free energy” value is -0.08 kcal/mol.

In the case of CTGCTCACGTGTGAGG, the “relative binding free energy” value turned out to be 0.38 kcal/mol.

For AGATGCACGTGATGAT, the “relative binding free energy” value amounted to 0.02 kcal/mol.

Take TTGCGCACGTGGTTTT: the “relative binding free energy” value is -0.08 kcal/mol.

With AGTGGCACGTGAAGCT, the “relative binding free energy” value was found to be 0.02 kcal/mol.

As to TGGGGCACGTGTTCCG, the “relative binding free energy” value was -0.23 kcal/mol.

On to TGAGTCACGTGGTATC, for which the “relative binding free energy” value came to 0.08 kcal/mol.

Regarding GGGATCACGTGCAGTT, the “relative binding free energy” value worked out at 0.15 kcal/mol.

Take GGGTACACGTGCGTTA: the “relative binding free energy” value is -0.12 kcal/mol.

With GAGTACACGTGGGAAG, the “relative binding free energy” value stood at 0.11 kcal/mol.

As to TCTTGCACGTGGTCGT, the “relative binding free energy” value is -0.03 kcal/mol.

Turning to TACTTCACGTGGGCGG, the “relative binding free energy” value was found to be 0.04 kcal/mol.

In the case of GGGGGCACGTGAGAGG, the “relative binding free energy” value came out at 0.06 kcal/mol.

On to AAGTGCACGTGGGTCT, for which the “relative binding free energy” value is -0.23 kcal/mol.

As for AGATACACGTGAGGAG, the “relative binding free energy” value came out at 0.26 kcal/mol.

TTATACACGTGGGTTA: the “relative binding free energy” value was -0.1 kcal/mol.

Consider CATTACACGTGGGGGG, for which the “relative binding free energy” value was determined as 0 kcal/mol.

In the case of ATGATCACGTGGGTAT, the “relative binding free energy” value is 0 kcal/mol.

Take GGTGGCACGTGGGCCG: the “relative binding free energy” value was -0.29 kcal/mol.

Consider TGTCGCACGTGGGAGC, for which the “relative binding free energy” value was -0.21 kcal/mol.

As for GGTAGCACGTGGCAGG, the “relative binding free energy” value was -0.1 kcal/mol.

Regarding GGATGCACGTGTCCGG, the “relative binding free energy” value was 0.02 kcal/mol.

As for CGTCGCACGTGGGGAT, the “relative binding free energy” value is -0.33 kcal/mol.

Consider TAAGACACGTGGGTTG, for which the “relative binding free energy” value stood at 0.01 kcal/mol.

Take GTGTTCACGTGAAAAA: the “relative binding free energy” value was 0.42 kcal/mol.

Regarding ATGTACACGTGGTTGG, the “relative binding free energy” value was -0.02 kcal/mol.

Consider TGAAACACGTGGGTTT, for which the “relative binding free energy” value was -0.06 kcal/mol.

Consider TTGACCACGTGTTGCG, for which the “relative binding free energy” value is 0.06 kcal/mol.

For the sequence ATGTGCACGTGCAGCT, the “relative binding free energy” value is -0.02 kcal/mol.

Regarding ACTGGCACGTGTGAGG, the “relative binding free energy” value is -0.07 kcal/mol.

On to TTGTTCACGTGAAATA, for which the “relative binding free energy” value amounted to 0.38 kcal/mol.

Consider TTTTCCACGTGTTGAG, for which the “relative binding free energy” value is -0.02 kcal/mol.

Consider GGGGGCACGTGGATCG, for which the “relative binding free energy” value was -0.07 kcal/mol.

For the sequence TTAGTCACGTGAAGTT, the “relative binding free energy” value was 0.38 kcal/mol.

Consider GGAGGCACGTGTTATT, for which the “relative binding free energy” value was -0.04 kcal/mol.

Take GTTACCACGTGCAGTT: the “relative binding free energy” value was found to be 0.23 kcal/mol.

Consider AGTTTCACGTGTAGAC, for which the “relative binding free energy” value is 0.26 kcal/mol.

For the sequence TGGTTCACGTGCTATG, the “relative binding free energy” value amounted to 0.11 kcal/mol.

For AGGTGCACGTGTGATT, the “relative binding free energy” value was found to be 0.13 kcal/mol.

Regarding AGGTTCACGTGGTTAT, the “relative binding free energy” value is 0.24 kcal/mol.

As for TAGTCCACGTGGGTTG, the “relative binding free energy” value is -0.03 kcal/mol.

Turning to TCCATCACGTGGGGTT, the “relative binding free energy” value is -0.1 kcal/mol.

For GGGGGCACGTGGACTA, the “relative binding free energy” value is -0.03 kcal/mol.

Turning to TGGCACACGTGGTTTA, the “relative binding free energy” value is -0.07 kcal/mol.

Take TCAATCACGTGTGGAT: the “relative binding free energy” value came to 0.12 kcal/mol.

For GGGGTCACGTGCTGAG, the “relative binding free energy” value amounted to 0.12 kcal/mol.

As for TTAGGCACGTGACTTG, the “relative binding free energy” value is -0.04 kcal/mol.

In the case of TTTTGCACGTGGAGCG, the “relative binding free energy” value was -0.01 kcal/mol.

GAGCCCACGTGGGTTG: the “relative binding free energy” value came to 0 kcal/mol.

In the case of TCGATCACGTGTTGGA, the “relative binding free energy” value was determined as 0.11 kcal/mol.

For the sequence GTTAGCACGTGGGTTT, the “relative binding free energy” value is -0.13 kcal/mol.

As for TCGAGCACGTGTATGT, the “relative binding free energy” value was found to be 0 kcal/mol.

TGTGGCACGTGTCACG: the “relative binding free energy” value is -0.04 kcal/mol.

Consider TCGGGCACGTGATGAG, for which the “relative binding free energy” value was determined as 0.1 kcal/mol.

Turning to GCTCGCACGTGGTTGG, the “relative binding free energy” value was -0.08 kcal/mol.

In the case of AGGCTCACGTGGGAGG, the “relative binding free energy” value was determined as 0.15 kcal/mol.

Take AAGCGCACGTGGTGGT: the “relative binding free energy” value is -0.11 kcal/mol.

Consider TAGTTCACGTGCGTGT, for which the “relative binding free energy” value came to 0.18 kcal/mol.

CTGGTCACGTGAAGAT: the “relative binding free energy” value stood at 0.3 kcal/mol.

Take CTTTTCACGTGTTTAT: the “relative binding free energy” value was found to be 0.29 kcal/mol.

For the sequence TGATGCACGTGAGGGA, the “relative binding free energy” value worked out at 0.19 kcal/mol.

Take GATTTCACGTGGGGGC: the “relative binding free energy” value came to 0.23 kcal/mol.

On to TAGTTCACGTGGGTCG, for which the “relative binding free energy” value is 0.12 kcal/mol.

For the sequence AAGCGCACGTGTGAGG, the “relative binding free energy” value was -0.07 kcal/mol.

As for TTAATCACGTGTTTGC, the “relative binding free energy” value was determined as 0.19 kcal/mol.

On to GTGGGCACGTGGACCG, for which the “relative binding free energy” value was -0.07 kcal/mol.

Consider GATGGCACGTGATGAA, for which the “relative binding free energy” value was 0.11 kcal/mol.

For the sequence CGGCGCACGTGGGTTA, the “relative binding free energy” value is -0.23 kcal/mol.

Regarding ATATTCACGTGGTACT, the “relative binding free energy” value worked out at 0.14 kcal/mol.

On to AGTAGCACGTGTACGG, for which the “relative binding free energy” value came out at 0 kcal/mol.

For the sequence GTGTACACGTGTGGGC, the “relative binding free energy” value was 0.13 kcal/mol.

For the sequence TATGGCACGTGGGTCA, the “relative binding free energy” value was -0.28 kcal/mol.

Consider AGTCTCACGTGTTCGG, for which the “relative binding free energy” value is 0.21 kcal/mol.

Consider AGTATCACGTGTGGGC, for which the “relative binding free energy” value stood at 0.17 kcal/mol.

In the case of ATTGTCACGTGTGCAA, the “relative binding free energy” value came to 0.07 kcal/mol.

For AGGATCACGTGCTGGG, the “relative binding free energy” value came to 0.14 kcal/mol.

With GATATCACGTGATGGG, the “relative binding free energy” value came to 0.31 kcal/mol.

In the case of GGTGTCACGTGAGCGG, the “relative binding free energy” value was determined as 0.31 kcal/mol.

As for TGATACACGTGATTTG, the “relative binding free energy” value was 0.35 kcal/mol.

Regarding ATGGTCACGTGGTTAT, the “relative binding free energy” value was found to be 0.05 kcal/mol.

Consider GTTTTCACGTGACTTA, for which the “relative binding free energy” value was 0.27 kcal/mol.

In the case of TTGCGCACGTGGATAT, the “relative binding free energy” value was -0.17 kcal/mol.

Turning to GTGTCCACGTGCGGTA, the “relative binding free energy” value came out at 0.05 kcal/mol.

As to TGATACACGTGGGGGT, the “relative binding free energy” value was -0.08 kcal/mol.

With TTTCTCACGTGTACGT, the “relative binding free energy” value is 0.29 kcal/mol.

Consider ATGGTCACGTGACATG, for which the “relative binding free energy” value came to 0.36 kcal/mol.

For the sequence TCTAGCACGTGTTAGG, the “relative binding free energy” value amounted to 0.05 kcal/mol.

On to TGGCCCACGTGGTTTT, for which the “relative binding free energy” value is -0.06 kcal/mol.

As to GGGAGCACGTGAGGAA, the “relative binding free energy” value is 0.17 kcal/mol.

For the sequence TGGATCACGTGGGAAT, the “relative binding free energy” value was found to be 0.08 kcal/mol.

Take GTGGTCACGTGTTTGT: the “relative binding free energy” value came out at 0.13 kcal/mol.

With GTTGGCACGTGCTGGA, the “relative binding free energy” value is -0.13 kcal/mol.

Turning to CGAGTCACGTGCGGAG, the “relative binding free energy” value amounted to 0.23 kcal/mol.

As to AAGAGCACGTGGTGGA, the “relative binding free energy” value is -0.14 kcal/mol.

For ATTAACACGTGGCTTG, the “relative binding free energy” value was -0.07 kcal/mol.

On to GGATTCACGTGTAGTA, for which the “relative binding free energy” value came to 0.4 kcal/mol.

With GGTGTCACGTGTCGTG, the “relative binding free energy” value came to 0.14 kcal/mol.

As to CTCGGCACGTGGTGGC, the “relative binding free energy” value was -0.17 kcal/mol.

As for TAGCGCACGTGGCGTG, the “relative binding free energy” value was -0.3 kcal/mol.

As for TGTCGCACGTGCGAGT, the “relative binding free energy” value is -0.07 kcal/mol.

TTGTTCACGTGTCTCT: the “relative binding free energy” value is 0.25 kcal/mol.

As for TTTCTCACGTGTATGC, the “relative binding free energy” value amounted to 0.35 kcal/mol.

For the sequence GTTGTCACGTGGTGGA, the “relative binding free energy” value is 0.09 kcal/mol.
